Drawing on a collection of fitness landscapes (doi:10.1126/science.1257360), this text covers enrichment ratio for 153 variants.

The other results are listed elsewhere or left out.

The chains are these.
B1: PhoQ; a variant is named by its letters at X, in order, P23837 (parent)
chain: MKKLLRLFFPLSLRVRFLLATAAVVLVLSLAYGMVALIGYSVSFDKTTFRLLRGESNLFYTLAKWENNKLHVELPENIDKQSPTMTLIYDENGQLLWAQRDVPWLMKMIQPDWLKSNGFHEIEADVNDTSLLLSGDHSIQQQLQEVREDDDDAEMTHSVAVNVYPATSRMPKLTIVVVDTIPVELKSSYMVWSWFIYVLSANLLLVIPLLWVAAWWSLRPIEALAKEVRELEEHNRELLNPATTRELTSLVRNLNRLLKSERERYDKYRTTLTDLTHSLKTPLXXLQXXLRSLRSEKMSVSDAEPVMLEQISRISQQIGYYLHRASMRGGTLLSRELHPVAPLLDNLTSALNKVYQRKGVNISLDISPEISFVGEQNDFVEVMGNVLDNACKYCLEFVEISARQTDEHLYIVVEDDGPGIPLSKREVIFDRGQRVDTLRPGQGVGLAVAREITEQYEGKIVAGESMLGGARMEVIFGRQHSAPKDE

The variants in this test derive from B1. Kind of test: enrichment ratio after two sorts for PhoP signalling (ratio (wild type AVST 3.29)); higher = more functional. The following applies: with PhoP (E. coli).
Regarding ACNL, the enrichment ratio was no more than 0.25. Next, YETY: no more than 0.25; YMVE: no more than 0.25. FCPN: the enrichment ratio was no more than 0.25. For TCWS, the enrichment ratio was 9.23. On to HATH, for which the enrichment ratio was no more than 0.25. For AIHV, the enrichment ratio is no more than 0.25. As for ECTM, the enrichment ratio is no more than 0.25. In the case of MDLA, the enrichment ratio is no more than 0.25. Consider SMGG, for which the enrichment ratio is 1.44.

Take MSMP: the enrichment ratio was no more than 0.25.

For the variant YELA, the enrichment ratio was no more than 0.25.

As for AQPH, the enrichment ratio was no more than 0.25.

As to SLFK, the enrichment ratio is no more than 0.25.

In the case of YNPL, the enrichment ratio is no more than 0.25.

For the variant DKMR, the enrichment ratio was no more than 0.25.

Take TMNY: the enrichment ratio was determined as 8.14. With NIRS, the enrichment ratio is no more than 0.25. Consider STNT, for which the enrichment ratio was no more than 0.25. In the case of TLTQ it was 6.49; in that of WIWS, no more than 0.25. Consider RELP, for which the enrichment ratio was no more than 0.25.

On to KYWY, for which the enrichment ratio is no more than 0.25. Regarding AYKI, the enrichment ratio is no more than 0.25. On to KYWV, for which the enrichment ratio was no more than 0.25. In the case of VHDL it was no more than 0.25; in that of IRCD, no more than 0.25; in that of LDAS, no more than 0.25.

With GIMH, the enrichment ratio was found to be 10.8.

For FELW, the enrichment ratio was no more than 0.25.

As for GTKC, the enrichment ratio was no more than 0.25. As for PMIW, the enrichment ratio is no more than 0.25. Regarding IEQD, the enrichment ratio is no more than 0.25.

As for RVDD, the enrichment ratio was no more than 0.25. As for IVIR, the enrichment ratio was no more than 0.25. NTIL: the enrichment ratio is no more than 0.25. With ASWR, the enrichment ratio was no more than 0.25. CSTF: the enrichment ratio was determined as 15.8.

For SDQN, the enrichment ratio is no more than 0.25. For TCPV, the enrichment ratio is no more than 0.25. In the case of AEYN, the enrichment ratio was no more than 0.25. For WTGD, the enrichment ratio is no more than 0.25.

Turning to LTDY, the enrichment ratio is no more than 0.25. For the variant WILQ, the enrichment ratio is no more than 0.25. As for RYNT, the enrichment ratio was no more than 0.25. In the case of TKCW, the enrichment ratio is no more than 0.25.

As for RWID, the enrichment ratio was no more than 0.25.

Turning to DGKL, the enrichment ratio was no more than 0.25. For the variant LMFY, the enrichment ratio is no more than 0.25. In the case of IWEM, the enrichment ratio is no more than 0.25. In the case of PPPL it was no more than 0.25. For TLKD, the enrichment ratio was no more than 0.25. For YVRR, the enrichment ratio is no more than 0.25. YIHW: the enrichment ratio is no more than 0.25.

RNWK: the enrichment ratio is no more than 0.25. SNGG: the enrichment ratio was 7.77. Regarding IFGM, the enrichment ratio was no more than 0.25. Next, YVFP: no more than 0.25.

On to INRD, for which the enrichment ratio was no more than 0.25. With NLLF, the enrichment ratio is no more than 0.25. Regarding DTPV, the enrichment ratio was no more than 0.25. Next, QFVS: no more than 0.25; RQNQ: no more than 0.25. For the variant KQLT, the enrichment ratio is no more than 0.25.

As for HMSC, the enrichment ratio is no more than 0.25. In the case of DFKA it was no more than 0.25; in that of AQDF, no more than 0.25. Next, ETPY: no more than 0.25.

Consider PYAF, for which the enrichment ratio was no more than 0.25.

As for PTYY, the enrichment ratio is no more than 0.25.

For PNCM, the enrichment ratio was no more than 0.25.

As for ITNR, the enrichment ratio was no more than 0.25. In the case of TRPA it was no more than 0.25.

For the variant VNNS, the enrichment ratio is no more than 0.25.

As to KNHG, the enrichment ratio is no more than 0.25. Take VLIQ: the enrichment ratio was no more than 0.25.

For the variant KAPI, the enrichment ratio is no more than 0.25.

Regarding TYHV, the enrichment ratio is no more than 0.25.

MNNC: the enrichment ratio was no more than 0.25. As to TIRF, the enrichment ratio was 0.704.

As for NFGQ, the enrichment ratio was no more than 0.25. On to GDLH, for which the enrichment ratio was no more than 0.25.

Turning to RWVC, the enrichment ratio was no more than 0.25. In the case of VMGS it was 1.16. In the case of HASP, the enrichment ratio was no more than 0.25. As for WVAK, the enrichment ratio was no more than 0.25. Take EYLC: the enrichment ratio is no more than 0.25. For the variant NDNP, the enrichment ratio is no more than 0.25.

On to SPIV, for which the enrichment ratio is no more than 0.25. Next, VCHK: no more than 0.25; VKCM: no more than 0.25. Regarding KEHN, the enrichment ratio is no more than 0.25.

In the case of QSRW, the enrichment ratio was no more than 0.25. For the variant ANFH, the enrichment ratio was no more than 0.25. In the case of NQSW it was no more than 0.25; in that of PHWQ, no more than 0.25; in that of YMYA, no more than 0.25. Turning to GFPL, the enrichment ratio is no more than 0.25. Take WSYR: the enrichment ratio is no more than 0.25. With LDTN, the enrichment ratio is no more than 0.25.

Regarding ILNR, the enrichment ratio was no more than 0.25. As for IAYI, the enrichment ratio is no more than 0.25. Turning to SLQT, the enrichment ratio was no more than 0.25. In the case of VHFD, the enrichment ratio is no more than 0.25. In the case of VVKG it was no more than 0.25; in that of FTQT, no more than 0.25. Next, WEEF: no more than 0.25. In the case of IPFW, the enrichment ratio was no more than 0.25. Next, WGFP: no more than 0.25; VEHY: no more than 0.25.

As for AGLR, the enrichment ratio stood at 3.46. Turning to CLIY, the enrichment ratio is no more than 0.25.

Turning to ITKE, the enrichment ratio is no more than 0.25. On to PRSG, for which the enrichment ratio is no more than 0.25. In the case of QIMW, the enrichment ratio was no more than 0.25. With NSVY, the enrichment ratio was no more than 0.25. Next, SDVM: 7.78. In the case of VCRV, the enrichment ratio was no more than 0.25. In the case of NWKH it was no more than 0.25; in that of DGGL, no more than 0.25. For YPCY, the enrichment ratio was no more than 0.25. Consider EAWM, for which the enrichment ratio is no more than 0.25. For QCDT, the enrichment ratio was no more than 0.25. Turning to NVGN, the enrichment ratio is no more than 0.25.

As for KDIF, the enrichment ratio was no more than 0.25.

As for TNVI, the enrichment ratio is no more than 0.25. For FSEV, the enrichment ratio was no more than 0.25.

QCNG: the enrichment ratio is no more than 0.25. In the case of HWWP it was no more than 0.25. On to DRDK, for which the enrichment ratio is no more than 0.25.

In the case of HKVL, the enrichment ratio is no more than 0.25. In the case of EAMK, the enrichment ratio was no more than 0.25. Next, LQCV: no more than 0.25.

For TKPG, the enrichment ratio is no more than 0.25. For the variant RFVD, the enrichment ratio was no more than 0.25. With ISQM, the enrichment ratio is no more than 0.25. Take HEVH: the enrichment ratio was no more than 0.25. In the case of VRYL it was no more than 0.25. Consider RILS, for which the enrichment ratio was no more than 0.25. Consider RPNQ, for which the enrichment ratio was no more than 0.25. With ITYA, the enrichment ratio is no more than 0.25. As to DQVF, the enrichment ratio was no more than 0.25. Regarding TVGN, the enrichment ratio stood at 3.64.

RFRP: the enrichment ratio was no more than 0.25. Consider IWDS, for which the enrichment ratio is no more than 0.25. In the case of PCWV, the enrichment ratio was no more than 0.25. DMCC: the enrichment ratio was no more than 0.25.

As for ARDF, the enrichment ratio is no more than 0.25. Turning to EAIV, the enrichment ratio was no more than 0.25.

For the variant NGTC, the enrichment ratio was no more than 0.25. In the case of FPCY, the enrichment ratio was no more than 0.25. Turning to PMMW, the enrichment ratio was no more than 0.25. Next, VQDN: no more than 0.25.
